Experimental findings from the supplement of paper PMC10126150 are described below.

In the data set the test system is ATP. Nature of the data set: switch fluorescence ratio, 500 uM ATP over buffer (Cy3 cluster intensity, sum of 5 cycles each) (fold (ratio)); higher = stronger signal-on switching upon ATP binding; sequences stand for … in TCGTCGGCAGCGTCAGATGTGTATAAGAGACAGTTTTTTTTTTTTTTTTTTTTTTTTT…TC. The conditions noted are these: aptamer strand: ATP DNA aptamer (quencher-CACCTGGGGGAGTATTGCGGAGGAAGG + anchor), 100 nM annealed; ATP concentration: 500 uM; one replicate. The method in brief:
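For every switch-domain sequence, the fluorescence ratio is the mean of per-cluster values, each being summed target-cycle Cy3 intensity over summed buffer-cycle Cy3 intensity. Clusters outside 100-1000 RFU were excluded. On a modified Illumina MiSeq flow-cell, the Cy3-labelled switching-strand clusters were annealed to 100 nM quencher-labelled ATP aptamer, imaged in selection buffer and then after 15 min with 500 uM ATP at 22 °C. Five such cycles were run, with NaOH stripping and re-annealing between them.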

Sequences with one replicate were seen in a single cluster, so their values are uncertain.
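Further: ATP exposure 15 min at 22 °C before imaging.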

Regarding GATATCGCAA, the switch fluorescence ratio was 5.64.
The value for CACTGTGCTG was 0.973; that for CCGAGTGTAG was 1.06.
To CTATGTATGC belongs 1.03; to CGGGCAGTGG, 1.02; to CGTATAGATT, 0.961.
To GGGGTTGAA belongs 0.981.
Consider ATCGGAGATA, for which the switch fluorescence ratio was 0.972.
For AGATACAACC, the switch fluorescence ratio was determined as 1.12.
The value for ATGTGATGCG was 0.945; that for GAGTATGAAC was 0.975.
To CGGGTACAGT belongs 0.98; to AACTCGTTTC, 1.05.
To AAAGGAATTA belongs 0.961.
Take CTCATGATTT: the switch fluorescence ratio was found to be 1.05.
The value for GCTGCGGACT was 1.06.
On to GCCGGCGTCA, for which the switch fluorescence ratio came out at 0.972.
To CGTGACTTTG belongs 1.07; to TTTCTAGGAT, 1.01.
On to CGAGCAGTAT, for which the switch fluorescence ratio came to 1.73.
The value for AACCGCTTTG was 0.978; that for CGGCGGTCGA was 0.974.
The value for GTGATAATTG was 1.18.
With TGGGCCGCAT, the switch fluorescence ratio is 1.13.
TTGCCGCAAA: the switch fluorescence ratio worked out at 1.82.
The value for CTGTGTGATA was 0.994; that for TTGATGTGAG was 1; that for GCCGGGAAGC was 1.07.
Turning to AGCAGCAGAG, the switch fluorescence ratio was found to be 1.
To GCGATTTACA belongs 1.07; to CTTGTTTCTG, 0.96; to AGTCCAGGGT, 1.14.
The value for ATTCGGCGGG was 1.
Regarding AGGATCAGA, the switch fluorescence ratio turned out to be 1.01.
To GCATGTGGAG belongs 0.999; to ATAGCTGAT, 1.01; to CTAGTCAATT, 1.01.
The value for AAGCAAAGC was 1.11; that for GAGCAGTCG was 1.03; that for AACCTACTCA was 1.32.
To ATTATTCCGT belongs 1.01; to AACGTTCGA, 1.05; to CTCGCGACAG, 1.04.
As to GTTGTAAAAG, the switch fluorescence ratio came out at 1.
The value for AGCTCGTAGC was 1.05.
Regarding TGGAATATTG, the switch fluorescence ratio came to 0.964.
On to CGCATAATTT, for which the switch fluorescence ratio amounted to 1.07.
To TCGTATCTTT belongs 0.961; to CTTGGTGAAG, 0.979; to GTGAAGATAG, 0.987.
To GGGACGTAGC belongs 1.1.
To TTGACAGATG belongs 0.993; to GGAGCTTATT, 1.48.
In the case of CTACGAGCAG, the switch fluorescence ratio was 1.12.
As to GCTTAACATT, the switch fluorescence ratio is 0.988.
Consider CGCCAAGGGC, for which the switch fluorescence ratio was 0.987.
As to TGAATCCGCT, the switch fluorescence ratio stood at 1.41.
Regarding CGGTAAACCT, the switch fluorescence ratio stood at 2.38.
To ACTGACCGTT belongs 1.19; to TGCCTCTTAT, 1.08.
AGCCTTTTGT: the switch fluorescence ratio was determined as 0.988.
With AGGAGATATA, the switch fluorescence ratio came to 0.992.
To ATAGTCGGCG belongs 0.943.
The value for TTGAAATGGA was 1.
To GTTGCTGGAG belongs 1.01; to TGGGAACGTA, 1.
For GTGGAATTAC, the switch fluorescence ratio was 1.07.
